In PubChem BioAssay AID624296 (National Center for Advancing Translational Sciences (NCATS), 2012):
The whole screen tested about 350,000 compounds, of which about 9,900 (2.8%) were called active. Inconclusive results, whose numbers are uncertain, are shown with a selection of clear calls. Calls follow the shape of the dose curve; as a rule, active = well fitted activation curve with a large enough effect; inconclusive = small, poorly fitted or top-dose-only effect; inactive = no such curve, though single readings can be large or run the other way. Potencies of inconclusive entries are left out as doubtful fits.

Test: A quantitative high throughput screen for small molecules that induce DNA re-replication in MCF 10a normal breast cells. Also: nearly all actives have a fitted effect of over 50% in size. As to activity, positive = re-replication: % of control where 0% means no effect.
Details: MCF 10A DNA re-replication, Hoechst nuclear intensity, 48 h; activity, positive = re-replication: at 46.1 µM (top of the series)
Potency is read from the fitted curve at half-maximal effect; tags tell the direction and shape of the fitted curve.

Which Potency does the source give for Cc1ccc(-c2cc(NC(=O)CCl)n(-c3ccccc3)n2)cc1 here?
Its Potency is inconclusive [activator, single point].

Which “activity, positive = re-replication” value does the source give for O=C(CCc1nnc2ccc(NCc3ccc(Cl)cc3)nn12)NC1CCCCC1 here?
The value was inactive: -1.13%.

For CC(C)OC(=O)CSc1nnc(Cc2ccccc2)n1Cc1ccco1, which Potency is on record?
The Potency was inconclusive [activator, full curve, poor fit].

With COc1cc(Nc2ccccc2Cl)c([N+](=O)[O-])nc1[N+](=O)[O-] as the compound, how does the Potency read?
Its Potency is inconclusive [activator, single point].

With CCOC(=O)CC1(NC(=O)c2cc(COc3ccc(F)c(F)c3)on2)CCCCC1 as the compound, how does the Potency read?
The Potency was inconclusive [activator, single point].

For CN1CCN(c2ccccc2NC(=O)c2ccc(-c3cccc(Cl)c3)o2)CC1, which Potency is on record?
The Potency was active: 20.6 µM.

With CCc1c(C)c2ccc(OC(C)C(=O)NC(Cc3c[nH]c4ccc(O)cc34)C(=O)O)c(C)c2oc1=O (centres undefined) as the compound, how does the Potency read?
Its Potency is inconclusive [activator, full curve, poor fit].

For COC(CNC(=O)c1coc2nc3ccccc3nc12)OC, which Potency is on record?
The Potency was inconclusive [activator, single point].

Which Potency does the source give for Cc1ccc(/C=C2\SC(=S)N(CC(=O)Nc3cccnc3)C2=O)cc1 here?
The Potency was inconclusive [activator, partial curve].

For O=[N+]([O-])c1ccc(-c2cc(-c3ccc(Cl)cc3)n[nH]2)cc1, which Potency is on record?
Its Potency is inconclusive [activator, single point].

With NC(=O)C1CC(=O)N(c2ccc(OCc3ccc([N+](=O)[O-])cc3)cc2)C1 (centres undefined) as the compound, how does the Potency read?
The Potency was inconclusive [activator, single point].

With Cc1occc1C(=O)N1CCN(c2ccc(Cl)cc2)CC1 as the compound, how does the Potency read?
Its Potency is inconclusive [activator, single point].

With O=C(CCSc1ccc(Cl)cc1)c1cccs1 as the compound, how does the Potency read?
Its Potency is inconclusive [activator, single point].

Which “activity, positive = re-replication” value does the source give for CCn1c2ccc(OC)cc2c2nc3ccccc3nc21 here?
The value was inactive: -2.24%.

Which Potency does the source give for COc1cc(OC)c(OC)cc1CN1CCC(O)CC1 here?
Its Potency is inconclusive [activator, partial curve, poor fit].

With CCOC(=O)C(CCc1nnc(N)s1)C(=O)OCC as the compound, how does the Potency read?
The Potency was inconclusive [activator, single point].

For O=C(Nc1nccs1)c1ccc(COc2ccc(Cl)cc2)o1, which “activity, positive = re-replication” value is on record?
Its value is inactive: 18.3%.

Which Potency does the source give for Cn1nc(C(F)(F)F)c(/C=N/OC(=O)c2ccccc2)c1SCc1ccccc1Cl here?
The Potency was active: 18.4 µM.

Which “activity, positive = re-replication” value does the source give for Cc1ccccc1OCCn1cnc2cc([N+](=O)[O-])ccc2c1=O here?
The value was inactive: 3.04%.

With COc1ccc(/C=C/C(O)=C(\C#N)c2nnc(N3CCOCC3)n2-c2ccccc2)cc1OC as the compound, how does the “activity, positive = re-replication” value read?
Its value is inactive: -1.35%.

Which Potency does the source give for O=C(O)C(C(O)c1ccc([N+](=O)[O-])cc1)[n+]1ccccc1 (centres undefined) here?
Its Potency is inconclusive [activator, full curve, poor fit].

Which “activity, positive = re-replication” value does the source give for O=S(=O)(c1ccccc1S(=O)(=O)N1CCCCC1)N1CCCCC1 here?
The value was inactive: 3.39%.

For CCCc1cc(C(=O)N2CCCC(C(=O)c3cc(C)c(OC)c(C)c3)C2)n(C)n1 (centres undefined), which Potency is on record?
The Potency was inconclusive [activator, partial curve, poor fit].

With COc1ccc(C(=O)Nc2ccc3c(c2)CCCN3C(=O)c2cccs2)c(OC)c1 as the compound, how does the “activity, positive = re-replication” value read?
The value was inactive: 12.9%.

For O=c1[nH]c(Cc2ccccc2)nc2scc(-c3ccccc3)c12, which Potency is on record?
The Potency was inconclusive [activator, single point].

Which Potency does the source give for COc1ccc(NC(=O)c2cccc(NC(=O)c3ccccc3)c2)c(OC)c1 here?
Its Potency is inconclusive [activator, single point].

With CCn1c(=O)c(C(=O)NNS(=O)(=O)c2ccc(Cl)cc2)c(O)c2ccccc21 as the compound, how does the Potency read?
The Potency was inconclusive [activator, full curve, poor fit].

Which Potency does the source give for Cc1nn(-c2ccccc2)c(C)c1/C=N/NC(=O)CSc1nnc(-c2ccccc2)n1-c1ccc(Cl)cc1 here?
Its Potency is inconclusive [activator, partial curve, poor fit].

With COc1cc2ncnc(NCc3ccco3)c2cc1OC as the compound, how does the Potency read?
Its Potency is inconclusive [activator, partial curve, poor fit].

For Cc1ccc2c(c1)CCCN2C(=O)c1ccncc1, which “activity, positive = re-replication” value is on record?
Its value is inactive: -6.02%.

With Cc1ccc2nc(-c3ccccn3)c(NC3CCCC3)n2c1 as the compound, how does the Potency read?
Its Potency is inconclusive [activator, single point].

Which “activity, positive = re-replication” value does the source give for Cc1sc(Cc2nc(O)cs2)nc1-c1ccccc1 here?
Its value is inactive: 0.118%.

Which “activity, positive = re-replication” value does the source give for Cc1c(F)c(N2CCNC(C)C2)cc2c1c(=O)c(C(=O)O)cn2C1CC1 (centres undefined) here?
Its value is inactive: 10.7%.

With COc1ccc(C(C)=O)cc1CSc1nc2ccccc2o1 as the compound, how does the Potency read?
The Potency was inconclusive [activator, partial curve, poor fit].

Which Potency does the source give for OCCOCCn1c(C2CCCN2c2nc(-c3ccc(F)cc3)cs2)nc2cc(Cl)c(Cl)cc21 (centres undefined) here?
Its Potency is inconclusive [activator, partial curve, poor fit].

With Nc1c2c(nc3ccccc13)CCC2 as the compound, how does the Potency read?
The Potency was inconclusive [activator, partial curve, poor fit].

With O=C(Cc1ccc([N+](=O)[O-])cc1)N1N=C(c2ccncc2)CC1(O)C(F)(F)F (centres undefined) as the compound, how does the “activity, positive = re-replication” value read?
The value was inactive: 18.2%.

For Cc1ccc(-c2cc(-c3n[nH]c(=S)o3)c3ccccc3n2)cc1, which Potency is on record?
Its Potency is inconclusive [activator, full curve, poor fit].

Which Potency does the source give for COc1cccc(-c2ccc3ncnc(NCc4cccs4)c3c2)c1 here?
Its Potency is inconclusive [activator, full curve, poor fit].

For CCC(CC)c1nnc(NC(=O)COc2ccc3c(c2)OCO3)s1, which Potency is on record?
The Potency was inconclusive [activator, single point].

Which Potency does the source give for C=CCNc1ncnc2c1ncn2C1OC(CO)C(O)C1O (centres undefined) here?
The Potency was inconclusive [activator, partial curve].

For COc1ccc2nc(NC(=O)C(NS(=O)(=O)c3cccc4nsnc34)C(C)C)sc2c1 (centres undefined), which “activity, positive = re-replication” value is on record?
The value was inactive: 1.84%.

With COc1cc2ccccc2cc1C(=O)NC1CCC(C)CC1 (centres undefined) as the compound, how does the “activity, positive = re-replication” value read?
Its value is inactive: 13.8%.

For O=Nc1c(-c2ccccc2)cc2ccccn12, which Potency is on record?
The Potency was inconclusive [activator, single point].
